# Laboratory results: the supplement of paper PMC8728848
# The list shows a part of the results.
# Tests used:
# Assay in all cases: glycan array binding signal (z-score within array); higher = stronger binding
# Conditions in all cases: glycan notation: IUPAC condensed, linker removed
# Fuc(a1-2)Gal = target: Fuc(a1-2)Gal
# Outline: (§1)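 Columns mapping to the same glycan were averaged after glycan names were converted to IUPAC-condensed notation. The data come from 3228 arrays in the Consortium for Functional Glycomics database, limited to those with an available protein sequence. Binding is reported as a within-array Z-score averaged across arrays of one protein sequence and across linkers.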
# Fuc(a1-2)Gal(b1-3)GalNAc = target: Fuc(a1-2)Gal(b1-3)GalNAc
# Outline: as §1
# [1] = target: Fuc(a1-2)Gal(b1-3)GalNAc(b1-3)Gal
# Outline: as §1
# [2] = target: Fuc(a1-2)Gal(b1-3)GalNAc(b1-3)Gal(a1-4)Gal(b1-4)Glc
# Outline: as §1
# [3] = target: Fuc(a1-2)Gal(b1-3)GalNAc(b1-4)[Neu5Ac(a2-3)]Gal(b1-4)Glc
# Outline: as §1
# Fuc(a1-2)Gal(b1-3)GlcNAc = target: Fuc(a1-2)Gal(b1-3)GlcNAc
# Outline: as §1
# [4] = target: Fuc(a1-2)Gal(b1-3)GlcNAc(b1-2)Man(a1-3)[Fuc(a1-2)Gal(b1-3)GlcNAc(b1-2)Man(a1-6)]Man(b1-4)GlcNAc(b1-4)GlcNAc
# Outline: as §1
# [5] = target: Fuc(a1-2)Gal(b1-3)GlcNAc(b1-3)Gal(b1-4)Glc
# Outline: as §1
# [6] = target: Fuc(a1-2)Gal(b1-3)GlcNAc(b1-3)[Gal(b1-4)[Fuc(a1-3)]GlcNAc(b1-6)]Gal(b1-4)Glc
# Outline: as §1
# [7] = target: Fuc(a1-2)Gal(b1-3)[Fuc(a1-4)]GlcNAc
# Outline: as §1
# [8] = target: Fuc(a1-2)Gal(b1-3)[Fuc(a1-4)]GlcNAc(b1-2)Man(a1-3)[Fuc(a1-2)Gal(b1-3)[Fuc(a1-4)]GlcNAc(b1-2)Man(a1-6)]Man(b1-4)GlcNAc(b1-4)GlcNAc
# Outline: as §1
# Fuc(a1-2)Gal(b1-4)Glc = target: Fuc(a1-2)Gal(b1-4)Glc
# Outline: as §1
# Fuc(a1-2)Gal(b1-4)Glc6S = target: Fuc(a1-2)Gal(b1-4)Glc6S
# Outline: as §1
# Fuc(a1-2)Gal(b1-4)GlcNAc = target: Fuc(a1-2)Gal(b1-4)GlcNAc
# Outline: as §1
# [9] = target: Fuc(a1-2)Gal(b1-4)GlcNAc(b1-2)Man(a1-3)[Fuc(a1-2)Gal(b1-4)GlcNAc(b1-2)Man(a1-6)]Man(b1-4)GlcNAc(b1-4)GlcNAc
# Outline: as §1
# [10] = target: Fuc(a1-2)Gal(b1-4)GlcNAc(b1-3)Gal(b1-4)GlcNAc
# Outline: as §1
# [11] = target: Fuc(a1-2)Gal(b1-4)GlcNAc(b1-3)Gal(b1-4)GlcNAc(b1-3)Gal(b1-4)GlcNAc
# Outline: as §1
# [12] = target: Fuc(a1-2)Gal(b1-4)GlcNAc6S
# Outline: as §1
# [13] = target: Fuc(a1-2)Gal(b1-4)[Fuc(a1-3)]GlcNAc
# Outline: as §1
# [14] = target: Fuc(a1-2)Gal(b1-4)[Fuc(a1-3)]GlcNAc(b1-2)Man(a1-3)[Fuc(a1-2)Gal(b1-4)[Fuc(a1-3)]GlcNAc(b1-2)Man(a1-6)]Man(b1-4)GlcNAc(b1-4)GlcNAc
# Outline: as §1
# [15] = target: Fuc(a1-2)Gal(b1-4)[Fuc(a1-3)]GlcNAc(b1-3)Gal(b1-4)[Fuc(a1-3)]GlcNAc
# Outline: as §1
# [16] = target: Fuc(a1-2)Gal(b1-4)[Fuc(a1-3)]GlcNAc(b1-3)Gal(b1-4)[Fuc(a1-3)]GlcNAc(b1-3)Gal(b1-4)[Fuc(a1-3)]GlcNAc
# Outline: as §1
# Fuc(a1-2)Gal6S(b1-4)Glc = target: Fuc(a1-2)Gal6S(b1-4)Glc
# Outline: as §1
# [17] = target: Fuc(a1-2)Gal6S(b1-4)Glc6S
# Outline: as §1
# [18] = target: Fuc(a1-2)Gal6S(b1-4)GlcNAc
# Outline: as §1
# Fuc(a1-2)[Gal(a1-3)]Gal = target: Fuc(a1-2)[Gal(a1-3)]Gal
# Outline: as §1
# [19] = target: Fuc(a1-2)[Gal(a1-3)]Gal(b1-3)GlcNAc
# Outline: as §1
# [20] = target: Fuc(a1-2)[Gal(a1-3)]Gal(b1-3)GlcNAc(b1-2)Man(a1-3)[Fuc(a1-2)[Gal(a1-3)]Gal(b1-3)GlcNAc(b1-2)Man(a1-6)]Man(b1-4)GlcNAc(b1-4)GlcNAc
# Outline: as §1
# [21] = target: Fuc(a1-2)[Gal(a1-3)]Gal(b1-4)Glc
# Outline: as §1
# [22] = target: Fuc(a1-2)[Gal(a1-3)]Gal(b1-4)GlcNAc
# Outline: as §1
# [23] = target: Fuc(a1-2)[Gal(a1-3)]Gal(b1-4)GlcNAc(b1-2)Man(a1-3)[Fuc(a1-2)[Gal(a1-3)]Gal(b1-4)GlcNAc(b1-2)Man(a1-6)]Man(b1-4)GlcNAc(b1-4)GlcNAc
# Outline: as §1
# [24] = target: Fuc(a1-2)[Gal(a1-3)]Gal(b1-4)[Fuc(a1-3)]GlcNAc
# Outline: as §1
# [25] = target: Fuc(a1-2)[Gal(a1-4)]Gal(b1-4)GlcNAc
# Outline: as §1
# [26] = target: Fuc(a1-2)[GalNAc(a1-3)]Gal
# Outline: as §1
# [27] = target: Fuc(a1-2)[GalNAc(a1-3)]Gal(b1-3)GlcNAc
# Outline: as §1
# [28] = target: Fuc(a1-2)[GalNAc(a1-3)]Gal(b1-3)GlcNAc(b1-2)Man(a1-3)[Fuc(a1-2)[GalNAc(a1-3)]Gal(b1-3)GlcNAc(b1-2)Man(a1-6)]Man(b1-4)GlcNAc(b1-4)GlcNAc
# Outline: as §1
# [29] = target: Fuc(a1-2)[GalNAc(a1-3)]Gal(b1-4)Glc
# Outline: as §1
# [30] = target: Fuc(a1-2)[GalNAc(a1-3)]Gal(b1-4)GlcNAc
# Outline: as §1
# [31] = target: Fuc(a1-2)[GalNAc(a1-3)]Gal(b1-4)GlcNAc(b1-2)Man(a1-3)[GalNAc(a1-3)[Fuc(a1-2)]Gal(b1-4)GlcNAc(b1-2)Man(a1-6)]Man(b1-4)GlcNAc(b1-4)GlcNAc
# Outline: as §1
# [32] = target: Fuc(a1-2)[GalNAc(a1-3)]Gal(b1-4)GlcNAc(b1-3)Gal(b1-4)GlcNAc
# Outline: as §1
# [33] = target: Fuc(a1-2)[GalNAc(a1-3)]Gal(b1-4)GlcNAc(b1-3)Gal(b1-4)GlcNAc(b1-3)Gal(b1-4)GlcNAc
# Outline: as §1
# [34] = target: Fuc(a1-2)[GalNAc(a1-3)]Gal(b1-4)[Fuc(a1-3)]GlcNAc
# Outline: as §1
# [35] = target: Fuc(a1-2)[GalNAc(a1-4)]Gal(b1-4)GlcNAc
# Outline: as §1
# [36] = target: Fuc(a1-2)[GalNAc(b1-3)]Gal
# Outline: as §1
# Fuc(a1-3)GlcNAc = target: Fuc(a1-3)GlcNAc
# Outline: as §1
# [37] = target: Fuc(a1-3)[Gal(b1-4)]Glc6S
# Outline: as §1
# [38] = target: Fuc(a1-3)[Gal(b1-4)]GlcNAc
# Outline: as §1
# [39] = target: Fuc(a1-3)[Gal(b1-4)]GlcNAc(b1-2)Man(a1-3)[Fuc(a1-3)[Gal(b1-4)]GlcNAc(b1-2)Man(a1-6)]Man(b1-4)GlcNAc(b1-4)GlcNAc
# Outline: as §1
# [40] = target: Fuc(a1-3)[Gal(b1-4)]GlcNAc(b1-2)Man(a1-6)[Gal(b1-4)GlcNAc(b1-2)Man(a1-3)]Man(b1-4)GlcNAc(b1-4)GlcNAc
# Outline: as §1
# [41] = target: Fuc(a1-3)[Gal(b1-4)]GlcNAc(b1-3)Gal(b1-3)[Fuc(a1-4)]GlcNAc
# Outline: as §1
# [42] = target: Fuc(a1-3)[Gal(b1-4)]GlcNAc(b1-4)Gal(b1-4)[Fuc(a1-3)]GlcNAc
# Outline: as §1
# [43] = target: Fuc(a1-3)[Gal(b1-4)]GlcNAc(b1-4)Gal(b1-4)[Fuc(a1-3)]GlcNAc(b1-4)Gal(b1-4)[Fuc(a1-3)]GlcNAc
# Outline: as §1
# [44] = target: Fuc(a1-3)[Gal(b1-4)]GlcNAc6S
# Outline: as §1
# [45] = target: Fuc(a1-3)[Gal3S(b1-4)]Glc6S
# Outline: as §1
# [46] = target: Fuc(a1-3)[Gal3S(b1-4)]GlcNAc
# Outline: as §1
# [47] = target: Fuc(a1-3)[Gal3S(b1-4)]GlcNAc6S
# Outline: as §1
# [48] = target: Fuc(a1-3)[GalNAc(b1-4)]GlcNAc
# Outline: as §1
# [49] = target: Fuc(a1-3)[Neu5Ac(a2-3)]Gal(b1-4)GlcNAc(b1-3)GalNAc
# Outline: as §1
# Fuc(a1-4)GlcNAc = target: Fuc(a1-4)GlcNAc
# Outline: as §1
# Fuc(b1-3)GlcNAc = target: Fuc(b1-3)GlcNAc
# Outline: as §1
binder,measurement,setting,value
"Sialidase (Vibrio cholerae), P37060 (protein) GAMALFDYNATGDTEFDSPAKQGWMQDNTNNGSGVLTNADGMPAWLVQGIGGRAQWTYSLSTNQHAQASSFGWRMTTEMKVLSGGMITNYYANGTQRVLPIISLDSSGNLVVEFEGQTGRTVLATGTAATEYHKFELVFLPGSNPSASFYFDGKLIRDNIQPTASKQNMIVWGNGSSNTDGVAAYRDIKFEIQGDALNGSMALFDYNATGDTEFDSPAKQGWMQDNTNNGSGVLTNADGMPAWLVQGIGGRAQWTYSLSTNQHAQASSFGWRMTTEMKVLSGGMITNYYANGTQRVLPIISLDSSGNLVVEFEGQTGRTVLATGTAATEYHKFELVFLPGSNPSASFYFDGKLIRDNIQPTASKQNMIVWGNGSSNTDGVAAYRDIKFEIQGDLQALGMALFDYNATGDTEFDSPAKQGWMQDNTNNGSGVLTNADGMPAWLVQGIGGRAQWTYSLSTNQHAQASSFGWRMTTEMKVLSGGMITNYYANGTQRVLPIISLDSSGNLVVEFEGQTGRTVLATGTAATEYHKFELVFLPGSNPSASFYFDGKLIRDNIQPTASKQNMIVWGNGSSNTDGVAAYRDIKFEIQGD",glycan array binding signal (z-score),Fuc(a1-2)Gal,-0.553
same,glycan array binding signal (z-score),Fuc(a1-2)Gal(b1-3)GalNAc,-0.229
same,glycan array binding signal (z-score),[1],-0.351
same,glycan array binding signal (z-score),[2],-0.283
same,glycan array binding signal (z-score),[3],0.139
same,glycan array binding signal (z-score),Fuc(a1-2)Gal(b1-3)GlcNAc,-0.596
same,glycan array binding signal (z-score),[4],0.26
same,glycan array binding signal (z-score),[5],-0.617
same,glycan array binding signal (z-score),[6],-0.38
same,glycan array binding signal (z-score),[7],-0.339
same,glycan array binding signal (z-score),[8],-0.697
same,glycan array binding signal (z-score),Fuc(a1-2)Gal(b1-4)Glc,-0.664
same,glycan array binding signal (z-score),Fuc(a1-2)Gal(b1-4)Glc6S,-0.128
same,glycan array binding signal (z-score),Fuc(a1-2)Gal(b1-4)GlcNAc,-0.237
same,glycan array binding signal (z-score),[9],-0.656
same,glycan array binding signal (z-score),[10],-0.541
same,glycan array binding signal (z-score),[11],0.415
same,glycan array binding signal (z-score),[12],-0.664
same,glycan array binding signal (z-score),[13],-0.432
same,glycan array binding signal (z-score),[14],-0.085
same,glycan array binding signal (z-score),[15],-0.651
same,glycan array binding signal (z-score),[16],-0.337
same,glycan array binding signal (z-score),Fuc(a1-2)Gal6S(b1-4)Glc,-0.252
same,glycan array binding signal (z-score),[17],1.06
same,glycan array binding signal (z-score),[18],0.313
same,glycan array binding signal (z-score),Fuc(a1-2)[Gal(a1-3)]Gal,-0.603
same,glycan array binding signal (z-score),[19],-0.518
same,glycan array binding signal (z-score),[20],-0.655
same,glycan array binding signal (z-score),[21],-0.115
same,glycan array binding signal (z-score),[22],-0.503
same,glycan array binding signal (z-score),[23],-0.105
same,glycan array binding signal (z-score),[24],0.119
same,glycan array binding signal (z-score),[25],-0.321
same,glycan array binding signal (z-score),[26],-0.425
same,glycan array binding signal (z-score),[27],-0.413
same,glycan array binding signal (z-score),[28],-0.659
same,glycan array binding signal (z-score),[29],-0.532
same,glycan array binding signal (z-score),[30],-0.297
same,glycan array binding signal (z-score),[31],0.218
same,glycan array binding signal (z-score),[32],-0.393
same,glycan array binding signal (z-score),[33],0.886
same,glycan array binding signal (z-score),[34],-0.537
same,glycan array binding signal (z-score),[35],-0.635
same,glycan array binding signal (z-score),[36],-0.589
same,glycan array binding signal (z-score),Fuc(a1-3)GlcNAc,-0.622
same,glycan array binding signal (z-score),[37],0.405
same,glycan array binding signal (z-score),[38],-0.499
same,glycan array binding signal (z-score),[39],-0.346
same,glycan array binding signal (z-score),[40],-0.675
same,glycan array binding signal (z-score),[41],-0.288
same,glycan array binding signal (z-score),[42],-0.513
same,glycan array binding signal (z-score),[43],-0.314
same,glycan array binding signal (z-score),[44],-0.047
same,glycan array binding signal (z-score),[45],0.597
same,glycan array binding signal (z-score),[46],-0.275
same,glycan array binding signal (z-score),[47],-0.202
same,glycan array binding signal (z-score),[48],-0.6
same,glycan array binding signal (z-score),[49],-0.125
same,glycan array binding signal (z-score),Fuc(a1-4)GlcNAc,-0.46
same,glycan array binding signal (z-score),Fuc(b1-3)GlcNAc,-0.673
